Some of the results follow. Rule as the data show it: active = 3.2 or more and inactive = the rest. Most of these values are background signal.
Columns and labels:
Assay in all cases: enrichment score (SH2-bound / input frequency) (ratio); bacterial display of known human phosphotyrosine sites (pTyr-Var adds point mutants) read by sequencing; higher = stronger binding; tyrosines were phosphorylated by kinases first
Settings in all cases: peptide library: pTyr-Var
[1] = target: SHP2 C-SH2 domain E139D
[2] = target: SHP2 C-SH2 domain wild-type
[3] = target: SHP2 N-SH2 domain L43F
[4] = target: SHP2 N-SH2 domain T42A
[5] = target: SHP2 N-SH2 domain T52S
[6] = target: SHP2 N-SH2 domain wild-type
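Also: displayed peptides selected on beads carrying the immobilized SH2 domain, with library peptides lacking any tyrosine serving as negative controls.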

Binder	enrichment score [1]	enrichment score [2]	enrichment score [3]	enrichment score [4]	enrichment score [5]	enrichment score [6]
ALAHKHHGGGG [HBB_Y146_Y146H]	inactive: 2.29	inactive: 1.89	inactive: 2.28	inactive: 1.63	inactive: 2.23	inactive: 1.69
PTTKTYFPQFD [HBA1_Y43_H46Q]	inactive: 1.41	inactive: 0.753	inactive: 0.961	inactive: 0.696	inactive: 1.12	inactive: 0.914
RLLVVYSWTQR [HBB_Y36_P37S]	inactive: 2.77	inactive: 2.76	inactive: 2.34	inactive: 2.43	inactive: 2.58	inactive: 2.55
QYQEKYKQVEQ [HCN4_Y531]	inactive: 0.519	inactive: 0.74	inactive: 0.543	inactive: 0.391	inactive: 0.606	inactive: 0.704
APAHKYHGGGG [HBD_Y146_L142P]	inactive: 1.42	inactive: 0.961	inactive: 1.16	inactive: 1.09	inactive: 1.15	inactive: 1.11
SLLVVYPWTQR [HBB_Y36_R31S]	inactive: 3.07	inactive: 2.6	inactive: 2.57	inactive: 2.66	inactive: 2.68	inactive: 2.22
RTTKTYFPHFD [HBA1_Y43_P38R]	inactive: 1.36	inactive: 1.02	inactive: 1.08	inactive: 1.71	inactive: 1.14	inactive: 1.25
RLLVIYPWTQR [HBG2_Y36_V35I]	inactive: 2.6	inactive: 2.29	inactive: 1.79	inactive: 1.83	inactive: 2.62	inactive: 2.02
PVQAPYQKVVA [HBB_Y131_A130P]	inactive: 0.755	inactive: 0.853	inactive: 0.896	inactive: 0.737	inactive: 1.04	inactive: 0.804
RLLVVYTWTQR [HBB_Y36_P37T]	inactive: 2.94	inactive: 2.52	inactive: 2.7	inactive: 2.21	inactive: 2.25	inactive: 2.09
PVEAAYQKVVA [HBB_Y131_Q128E]	inactive: 0.856	inactive: 0.721	inactive: 1.04	inactive: 0.561	inactive: 1.01	inactive: 0.907
ALAPKYHGGGG [HBB_Y146_H144P]	inactive: 0.566	inactive: 0.473	inactive: 0.759	inactive: 0.603	inactive: 0.726	inactive: 0.674
RLLVVYPWTKR [HBB_Y36_Q40K]	inactive: 0.345	inactive: 0.553	inactive: 0.353	inactive: 0.257	inactive: 0.481	inactive: 0.371
RPLVVYPWTQR [HBB_Y36_L32P]	inactive: 0.601	inactive: 0.466	inactive: 0.542	inactive: 0.575	inactive: 0.599	inactive: 0.634
PGQAAYQKVVA [HBB_Y131_V127G]	inactive: 0.728	inactive: 0.947	inactive: 0.818	inactive: 0.856	inactive: 0.675	inactive: 0.739
DLAHKYHGGGG [HBB_Y146_A141D]	inactive: 0.797	inactive: 0.583	inactive: 0.585	inactive: 0.583	inactive: 0.598	inactive: 0.656
QFQEKYKQVEQ [HCN4_Y531_YF]	inactive: 0.974	inactive: 0.86	inactive: 0.737	inactive: 0.646	inactive: 1.05	inactive: 0.796
QMQAAYQKAVA [HBD_Y131_V134A]	inactive: 0.756	inactive: 0.677	inactive: 0.739	inactive: 0.637	inactive: 0.797	inactive: 0.573
PVQAAYPKVVA [HBB_Y131_Q132P]	inactive: 0.696	inactive: 0.72	inactive: 0.908	inactive: 0.577	inactive: 0.61	inactive: 0.995

Binder	enrichment score [1]	enrichment score [2]	enrichment score [3]	enrichment score [4]	enrichment score [5]	enrichment score [6]
PTTKTYFPHFY [HBA1_Y43_D48Y]	inactive: 1.19	inactive: 1.04	inactive: 0.919	inactive: 0.959	inactive: 0.968	inactive: 1.16
RLLVVYPSTQR [HBB_Y36_W38S]	active: 3.26	inactive: 2.65	inactive: 2.88	inactive: 2.6	inactive: 2.78	inactive: 2.51
PTTKTYFPHFH [HBA1_Y43_D48H]	inactive: 2.07	inactive: 1.86	inactive: 1.85	inactive: 2.04	inactive: 1.88	inactive: 2.39
RLLVVYPWTQR [HBB_Y36]	inactive: 2.35	inactive: 2.03	inactive: 2.18	inactive: 2.12	inactive: 2.57	inactive: 2.09
PAQAAYQKVVA [HBB_Y131_V127A]	inactive: 0.813	inactive: 0.815	inactive: 0.871	inactive: 0.704	inactive: 0.901	inactive: 1.11
ALAHKYHGGGG [HBB_Y146]	inactive: 0.439	inactive: 0.54	inactive: 0.548	inactive: 0.31	inactive: 0.45	inactive: 0.575
RLLVVYPWTER [HBB_Y36_Q40E]	active: 3.76	inactive: 3.19	active: 3.63	inactive: 2.78	active: 3.54	inactive: 3.06
PVQAAYRKVVA [HBB_Y131_Q132R]	inactive: 0.408	inactive: 0.466	inactive: 0.453	inactive: 0.319	inactive: 0.493	inactive: 0.71
RLLVVYPWNQR [HBB_Y36_T39N]	inactive: 1.76	inactive: 2.07	inactive: 1.52	inactive: 1.41	inactive: 1.76	inactive: 1.39
TTKGSYSLSVR [HCK_Y180]	inactive: 0.862	inactive: 0.649	inactive: 0.798	inactive: 0.741	inactive: 0.796	inactive: 0.912
PTTMTYFPHFD [HBA1_Y43_K41M]	inactive: 1.05	inactive: 0.753	inactive: 0.907	inactive: 0.836	inactive: 0.921	inactive: 1.1
PVQAAYQKLVA [HBB_Y131_V134L]	inactive: 0.757	inactive: 0.903	inactive: 0.887	inactive: 0.707	inactive: 0.941	inactive: 0.839
RLLVVFPWTQR [HBB_Y36_Y36F]	inactive: 1.77	inactive: 1.5	inactive: 1.2	inactive: 1.43	inactive: 1.6	inactive: 1.45
ALAHKYDGGGG [HBB_Y146_H147D]	inactive: 0.88	inactive: 0.476	inactive: 0.292	inactive: 0.302	inactive: 0.383	inactive: 0.403
ALAHKYQGGGG [HBB_Y146_H147Q]	inactive: 0.633	inactive: 1.03	inactive: 0.71	inactive: 0.642	inactive: 0.798	inactive: 0.409
PVQAAYQKVVD [HBB_Y131_A136D]	inactive: 0.681	inactive: 0.944	inactive: 0.914	inactive: 0.79	inactive: 0.742	inactive: 1.01
RLLVFYPWTQR [HBB_Y36_V35F]	active: 3.34	inactive: 2.76	inactive: 2.92	inactive: 2.3	inactive: 3.06	inactive: 3.08
QFQEKYKQMEQ [HCN4_Y531_V534M_YF]	inactive: 1.2	inactive: 0.803	inactive: 0.869	inactive: 0.81	inactive: 0.736	inactive: 0.733

Source: the supplement of paper PMC10369915
